The record followed here is publication PMC11721518.

Positions count from the first letter of the chain named. No constants are given. Whether binding was seen depends on the method and setting. In cells and extracts the contact can be indirect. Some entries that bind do so weakly or less than the wild type. Tags and fused reporters may be left off the sequences shown.

Common to all, as to assay: pull-down; semi-in vitro: GFP-DFCP1 constructs pulled out of HEK 293T lysates onto His-GFP-nanobody beads, washed repeatedly with PBS, then incubated with purified ATGL (FLAG-ATGL or MBP-ATGL 1-254); detected by blot; only the binder purified
The target of experiment [1] is T1, GFP-DFCP1^WT (Double FYVE Domain Containing Protein 1) (UniProt Q9HBF4).
T1 sequence: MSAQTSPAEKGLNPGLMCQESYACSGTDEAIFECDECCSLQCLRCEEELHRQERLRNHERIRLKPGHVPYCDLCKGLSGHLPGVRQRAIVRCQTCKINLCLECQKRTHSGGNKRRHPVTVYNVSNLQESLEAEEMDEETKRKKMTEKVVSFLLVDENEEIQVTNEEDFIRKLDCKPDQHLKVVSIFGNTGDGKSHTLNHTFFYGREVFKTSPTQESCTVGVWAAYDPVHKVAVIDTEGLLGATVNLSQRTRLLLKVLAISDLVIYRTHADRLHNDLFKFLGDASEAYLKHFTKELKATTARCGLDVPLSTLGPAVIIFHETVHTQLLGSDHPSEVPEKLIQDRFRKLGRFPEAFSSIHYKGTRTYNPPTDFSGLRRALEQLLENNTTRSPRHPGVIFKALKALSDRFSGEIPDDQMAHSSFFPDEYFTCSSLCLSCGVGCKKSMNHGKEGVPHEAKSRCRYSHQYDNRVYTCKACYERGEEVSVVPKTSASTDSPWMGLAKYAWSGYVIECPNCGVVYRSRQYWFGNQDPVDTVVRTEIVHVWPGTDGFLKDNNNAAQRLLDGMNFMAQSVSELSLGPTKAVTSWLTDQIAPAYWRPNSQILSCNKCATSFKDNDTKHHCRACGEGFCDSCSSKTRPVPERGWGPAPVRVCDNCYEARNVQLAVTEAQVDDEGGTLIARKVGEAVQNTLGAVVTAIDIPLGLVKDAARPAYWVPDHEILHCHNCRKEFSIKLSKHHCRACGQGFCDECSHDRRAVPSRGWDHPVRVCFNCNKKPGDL

The target of the next experiment is T2, GFP-DFCP1^RQ (R266Q) (UniProt Q9HBF4).
T2 sequence: T1 sequence with R266Q

The target in the next experiment is T3, GFP-DFCP1^KA (K193A) (UniProt Q9HBF4).
T3 sequence: T1 sequence with K193A

The next experiment concerns the target T4, GFP-DFCP1^415-777 (UniProt Q9HBF4).
T4 sequence: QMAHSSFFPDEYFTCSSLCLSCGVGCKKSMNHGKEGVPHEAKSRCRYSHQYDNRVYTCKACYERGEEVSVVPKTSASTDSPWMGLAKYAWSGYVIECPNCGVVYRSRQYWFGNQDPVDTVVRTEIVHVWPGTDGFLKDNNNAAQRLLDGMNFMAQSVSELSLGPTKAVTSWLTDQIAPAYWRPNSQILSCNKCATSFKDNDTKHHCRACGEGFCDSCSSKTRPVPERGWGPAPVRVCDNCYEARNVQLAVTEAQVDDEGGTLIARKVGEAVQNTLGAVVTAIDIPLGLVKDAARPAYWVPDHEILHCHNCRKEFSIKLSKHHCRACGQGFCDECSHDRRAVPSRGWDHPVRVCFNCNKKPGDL

Another experiment addresses T5, GFP-DFCP1^1-415 (UniProt Q9HBF4).
T5 sequence: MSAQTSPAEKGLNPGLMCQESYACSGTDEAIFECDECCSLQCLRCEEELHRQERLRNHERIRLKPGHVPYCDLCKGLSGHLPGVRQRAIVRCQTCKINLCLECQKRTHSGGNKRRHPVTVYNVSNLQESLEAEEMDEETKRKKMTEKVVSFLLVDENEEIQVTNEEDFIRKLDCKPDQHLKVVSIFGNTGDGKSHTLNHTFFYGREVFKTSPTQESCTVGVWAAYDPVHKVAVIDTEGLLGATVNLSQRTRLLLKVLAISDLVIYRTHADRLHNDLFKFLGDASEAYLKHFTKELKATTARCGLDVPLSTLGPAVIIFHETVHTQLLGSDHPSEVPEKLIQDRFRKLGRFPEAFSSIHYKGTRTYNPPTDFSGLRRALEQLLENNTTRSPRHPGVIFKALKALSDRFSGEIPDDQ

The target in a further experiment is T6, DFCP1^554-777 (UniProt Q9HBF4).
T6 sequence: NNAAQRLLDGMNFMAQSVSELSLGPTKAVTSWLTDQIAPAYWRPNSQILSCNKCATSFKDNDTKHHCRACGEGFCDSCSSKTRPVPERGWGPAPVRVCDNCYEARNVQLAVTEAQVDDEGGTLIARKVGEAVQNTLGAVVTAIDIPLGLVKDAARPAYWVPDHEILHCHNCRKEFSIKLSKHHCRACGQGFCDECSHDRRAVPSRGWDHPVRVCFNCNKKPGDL

B1: FLAG-ATGL (human Adipose Triglyceride Lipase, full length) (enzyme, UniProt Q96AD5 1-504)
chain: MFPREKTWNISFAGCGFLGVYYVGVASCLREHAPFLVANATHIYGASAGALTATALVTGVCLGEAGAKFIEVSKEARKRFLGPLHPSFNLVKIIRSFLLKVLPADSHEHASGRLGISLTRVSDGENVIISHFNSKDELIQANVCSGFIPVYCGLIPPSLQGVRYVDGGISDNLPLYELKNTITVSPFSGESDICPQDSSTNIHELRVTNTSIQFNLRNLYRLSKALFPPEPLVLREMCKQGYRDGLRFLQRNGLLNRPNPLLALPPARPHGPEDKDQAVESAQAEDYSQLPGEDHILEHLPARLNEALLEACVEPTDLLTTLSNMLPVRLATAMMVPYTLPLESALSFTIRLLEWLPDVPEDIRWMKEQTGSICQYLVMRAKRKLGRHLPSRLPEQVELRRVQSLPSVPLSCAAYREALPGWMRNNLSLGDALAKWEECQRQLLLGLFCTNVAFPPEALRMRAPADPAPAPADPASPQHQLAGPAPLLSTPAPEARPVIGALGL
Regarding B1, the binding entry in experiment [1] is reported as “binds”.

B2: MBP-ATGL (1–254) (domain or fragment, UniProt Q96AD5 1-254)
chain: MFPREKTWNISFAGCGFLGVYYVGVASCLREHAPFLVANATHIYGASAGALTATALVTGVCLGEAGAKFIEVSKEARKRFLGPLHPSFNLVKIIRSFLLKVLPADSHEHASGRLGISLTRVSDGENVIISHFNSKDELIQANVCSGFIPVYCGLIPPSLQGVRYVDGGISDNLPLYELKNTITVSPFSGESDICPQDSSTNIHELRVTNTSIQFNLRNLYRLSKALFPPEPLVLREMCKQGYRDGLRFLQRNGL
As to B2, the binding result with GFP-DFCP1^RQ (R266Q) is “binds”; in the experiment with GFP-DFCP1^KA (K193A) it was “binds”; in experiment [1] it was “binds”; with GFP-DFCP1^415-777, “binds”; with GFP-DFCP1^1-415 it was “no binding”; in the experiment with DFCP1^554-777, “binds”.
